The source gives no read counts; variants with many changes may rest on few reads.
B1: LINE1-mini (parent)
chain: GGCAGAGCUCAACACAGCGUGGCAAAGUGGCUGUGGCUAGACUGCC

Variants of: B1
Assay: self-cleavage, relative activity (ratio to wild type); higher = more cleavage; in vitro, sequencing; the parent is a self-cleaving ribozyme

| Variant | self-cleavage |
| --- | --- |
| GGCAGAACUCAACACAGCGUGGCAAAGUUGAUGUGGCUAGGCUGCC [G7A G29U C31A A41G] | 0.15 |
| GGCAGAGUAAAACACAGCGUGGCAAAUUGGCUGUGGCUAGACUGCC [C8U U9A C10A G27U] | 0.02 |
| GGAAGACCCCAACACAUCGUGGCAAAGUGGCUGUGGCUAGACUCCC [C3A G7C U9C G17U G44C] | 0.08 |
| GGCAGAACUCAACACAGCGUGGCAAAGUGGCUUUGGCUAGACUUCC [G7A G33U G44U] | 0.1 |
| GGCAGAGCUGAACACAGCGUGGCAAAGUUUCUGUGGCUAGACUGCC [C10G G29U G30U] | 0.08 |
| CGCGGAGCUCAACACAGCGUUGCAAAGUGGCUGUGGCUAGACUGCC [G1C A4G G21U] | 0.72 |
| GGCAGAGAUCAACACUGAGUGGCAAAGUGGCUGGGGCUAGACUCCC [C8A A16U C18A U34G G44C] | 0.08 |
| GGCAGAGCUCAACACACCGGGGCAAAGUUGCUGUGGCUAGACUUAC [G17C U20G G29U G44U C45A] | 0.04 |
| CGCAGAGCUCAACACGGCGUGGCAAAGUGUCUGUGGCUAGACUCCC [G1C A16G G30U G44C] | 0.03 |
| GGCAGAGCUCAACUCAGUGUGGCAAAGUGGCUGCGGCUAGACUGCC [A14U C18U U34C] | 0.02 |
| GGCAGAGCACAACACAGCGUGGCAAAGCGGCUCUGGCUAGACUGCC [U9A U28C G33C] | 0.03 |
| CGCAGGGCACAACACAGCGUGGCAAAGUGGCUGUGGCUAGACUGCA [G1C A6G U9A C46A] | 0.05 |
| GGCAGAGCUCAACACAGCGUGGGCAAGUGGUUGUGGCUAGACUGCG [C23G A24C C31U C46G] | 0.01 |
| GUCAUAGCUCAACACAGCGUGGCAAAAUGGCUGUGGAUAGACUCCC [G2U G5U G27A C37A G44C] | 0.03 |
| GGCAGAGCUCAACACAGCGUGGGGUAGUGGCAGUGGCUAGACUGCC [C23G A24G A25U U32A] | 0.02 |
| UGCAGAGCUCAACACAUCGUGGCAAAUUGUCUGUGGCUAGACUGCC [G1U G17U G27U G30U] | 0.34 |
| UGGGGAGCUCAACACAGCGUGGCUAAGUGGCUGUGGCUAGACUGCC [G1U C3G A4G A24U] | 0.01 |
| GACAACGCUCAACACAGCGUCGCAAAGUGGCUGUGGCUCGAUGGCC [G2A G5A A6C G21C A39C C42U U43G] | 0.13 |
| GGAAGAGCUCAAUCCAGCGUGACAAAGUGGCUGUGGCUAGACUGCC [C3A C13U A14C G22A] | 2.09 |

| Variant | self-cleavage |
| --- | --- |
| GGCAGAGCUCAACACAGCGUGGGAAAGCAGCUGUGGCUACACUGCC [C23G U28C G29A G40C] | 0.06 |
| GGCAGAGCUCAACACAACGUGGCAAAGUGCCUGCGGCUACACUGCC [G17A G30C U34C G40C] | 0.09 |
| GGCAGAGCUCAACCCAGCGUGGCAAAGUGGCUGCGGCUAGACUGGC [A14C U34C C45G] | 0.05 |
| GGCAGAGCUCAACACAGCGUGGCAAAGUGGCCGUGUAUAGACUGCC [U32C G36U C37A] | 0.27 |
| GGCAGAGCUCAACACAGCGGGGCAAAGUGGCUGUGGCUGGACUGCU [U20G A39G C46U] | 0.03 |
| GGCCGAGGUCAACACAGCGUGGCAAAAUGGCAGUGGCUAGACUGCC [A4C C8G G27A U32A] | 0.04 |
| GGCCGAGCUCAACGAAGCGUGGCAAAGUGGCUGUGGCUAUAUUGCC [A4C A14G C15A G40U C42U] | 0.05 |
| GGCAGAGUUCAACACAGCGUGGCGAAGUGGCUGUGGCUCGACUGCC [C8U A24G A39C] | 0.05 |
| GGCAGGGCUCAACACAACGUGGCAAAGUGGCUGUCGCUAGACUGCA [A6G G17A G35C C46A] | 0 |
| GGCAUAGAUCAACACAGCGUGGCAAUGUUGCUGUGGCUAGACUGCC [G5U C8A A26U G29U] | 0.25 |
| GGCAGAGCUCCACACAGCAUGGCAAAGUGGCUGUGGCUAGACUACC [A11C G19A G44A] | 0.02 |
| GGCAGUGUUGAACACAGCGUGGCAAAGUGGCUCUGGCUAGACUUCC [A6U C8U C10G G33C G44U] | 0.03 |
| GCCAGAGCACAACACAGCAUGGCAAAGUGGCUGUGGCUAGACUGCC [G2C U9A G19A] | 0.02 |
| GGCAGUGCUGAACACAGCGUGGCAAAGUGGCUGUCGCUAAACUGCC [A6U C10G G35C G40A] | 0.01 |
| GGGCGAGGUCAACACAUCGUGCCAAAGUGGCUUUGGCUAGACUGCC [C3G A4C C8G G17U G22C G33U] | 0.06 |
| GGUAGAGCUCAACACAGCGUCGCUAAGUGGCUGUGGCUAGACAGCC [C3U G21C A24U U43A] | 0.06 |
| GGCAGAGCUCAACACAGCGUGGCAAACUGGCUGUGGGUGGACUGCC [G27C C37G A39G] | 0.01 |
| GUCAUAGCUCAACACAGCGUGGCAAAGUGGCUGUGGCUAGACCGUC [G2U G5U U43C C45U] | 0.02 |
| GGCAGAGCUCGACACAGCCUCGCAAUGUUGCUGUGGCUGUACUGCC [A11G G19C G21C A26U G29U A39G G40U] | 0.01 |

| Variant | self-cleavage |
| --- | --- |
| GGCAUCGCGCAACACAGCCUGGCAAAGUGGCUGUGGCUAGACUGCC [G5U A6C U9G G19C] | 0.01 |
| GGCAGAGCUAAACACGGCGCGGCAAAGUGGCUGUGGCUAGACUGCC [C10A A16G U20C] | 0.03 |
| GGCAGAACUCAACACACCGGGGCAAAGUGGCUGUGGGUAGACUGCC [G7A G17C U20G C37G] | 0.05 |
| GGCACAGCUCAACACAACGUGGCAAAGUGGCUGUCGCUAGACUGCC [G5C G17A G35C] | 0.09 |
| GGCAGAGCCCAACACAGAGGGGCCAAGUGGCUGUGGUUAGACUGCC [U9C C18A U20G A24C C37U] | 0.02 |
| GGCAGAGCUCAUACCAGCGUGGCAAAGUGGCUGGGGCUAGUCUGCC [A12U C13A A14C U34G A41U] | 0.07 |
| GUCAGAGCUCAACACAGCGGGGCAAAGUGUCUGUUGCUAGACUGCC [G2U U20G G30U G35U] | 0.03 |
| GGCCGAGCUCAAGACAGCGUGGCAAAGUGGCUGUGGCUAGGCUGCC [A4C C13G A41G] | 0.02 |
| GGCAGAGCUCAACGCAGCGUGGCAACGUGGCUGUGGAUAGACUGCC [A14G A26C C37A] | 0.01 |
| GGUAGAGCUCAACACUGCGUGGCAAAGUGGCUGUGGCUUGACUGCC [C3U A16U A39U] | 0.08 |
| GGCUGAGCUCAACACAGUGUGGCAAAAUGGCUGUUGCUAGACUGCC [A4U C18U G27A G35U] | 0.09 |
| GGCAGAUUUCAACACAGCGUGGCAAAGUUGUUGCGGCUACAAUGCC [G7U C8U G29U C31U U34C G40C C42A] | 0.23 |
| GGCAGAGCUCAACAUAGCGUGACAAAGUCGCUGUGGCUAGACGCCC [C15U G22A G29C U43G G44C] | 0.14 |
| GUCAGCGCUCAACACAGCGAAGCACAGUGGUUGCGGCUAGACUGCC [G2U A6C U20A G21A A25C C31U U34C] | 0.01 |
| GGCAGAGCUAAUCACAGGGUUGCAAAGUGGCUGUGGCUAGACUGCC [C10A A12U C18G G21U] | 0.04 |
| GGCAGAGCUCAACAAAGCGUGGCAAAGUGGCUGUCGCUAGAUUGCC [C15A G35C C42U] | 0 |
| GGCUGAGCUCAACGCAGCGUGGCCAAGUGGCUGUGGCUAGACUGCC [A4U A14G A24C] | 0.03 |
| GGCAGAGCUCAACACAGGGUGGCAUAGUUGCUGUGGCUAGACUGCC [C18G A25U G29U] | 0.93 |

Reference: the RNAGym collection of RNA variant scans (doi:10.7554/elife.90254)
